Measured values published in publication PMC4336329 (PLoS ONE, 2015).
In all, about 310,000 compounds went through this assay and about 2,200 (0.71%) showed an effect of 50% or more. The effect is printed as a negative number. The list shows a part of the results.

What follows are molecules tested against human ether-à-go-go-related gene (hERG) potassium channel (human, UniProt Q12809) (assay: primary screen, population patch clamp on CHO cells stably expressing hERG).
Sequence of human ether-à-go-go-related gene (hERG) potassium channel (Q12809 whole entry, looked up): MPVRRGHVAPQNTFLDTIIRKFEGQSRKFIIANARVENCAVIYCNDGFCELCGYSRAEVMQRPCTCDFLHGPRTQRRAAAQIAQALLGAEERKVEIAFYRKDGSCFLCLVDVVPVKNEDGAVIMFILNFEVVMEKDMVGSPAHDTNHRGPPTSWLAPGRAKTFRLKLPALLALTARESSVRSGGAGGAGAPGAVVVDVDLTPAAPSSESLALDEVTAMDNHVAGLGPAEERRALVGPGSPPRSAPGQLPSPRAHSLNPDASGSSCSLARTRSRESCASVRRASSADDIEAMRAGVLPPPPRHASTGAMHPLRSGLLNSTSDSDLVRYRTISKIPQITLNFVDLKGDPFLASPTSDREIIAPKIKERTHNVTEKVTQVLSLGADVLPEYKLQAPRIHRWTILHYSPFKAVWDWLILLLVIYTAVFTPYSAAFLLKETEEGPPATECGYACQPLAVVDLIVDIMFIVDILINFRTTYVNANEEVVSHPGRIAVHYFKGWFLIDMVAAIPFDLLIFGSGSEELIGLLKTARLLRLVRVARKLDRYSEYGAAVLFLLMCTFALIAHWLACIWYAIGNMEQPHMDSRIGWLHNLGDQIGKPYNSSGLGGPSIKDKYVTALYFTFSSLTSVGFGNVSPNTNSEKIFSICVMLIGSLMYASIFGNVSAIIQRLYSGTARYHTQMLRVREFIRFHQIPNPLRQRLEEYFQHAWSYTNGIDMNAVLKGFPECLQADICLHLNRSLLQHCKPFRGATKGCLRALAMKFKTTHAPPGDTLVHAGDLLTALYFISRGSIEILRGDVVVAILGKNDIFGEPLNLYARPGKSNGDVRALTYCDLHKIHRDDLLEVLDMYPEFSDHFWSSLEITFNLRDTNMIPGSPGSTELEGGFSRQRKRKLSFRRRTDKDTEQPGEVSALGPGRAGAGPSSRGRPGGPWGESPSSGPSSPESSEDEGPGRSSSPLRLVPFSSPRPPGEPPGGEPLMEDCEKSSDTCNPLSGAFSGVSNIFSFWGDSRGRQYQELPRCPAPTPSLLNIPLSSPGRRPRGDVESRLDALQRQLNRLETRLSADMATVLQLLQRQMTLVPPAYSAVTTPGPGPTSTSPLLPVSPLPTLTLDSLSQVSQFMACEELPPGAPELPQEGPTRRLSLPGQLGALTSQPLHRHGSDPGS

Compound | hERG current change (%, negative = inhibition) at 1uM
O=C(c1ccccc1)N1CCC(CC2CC(c3ccc(Cl)cc3)=NO2)(C(=O)NCC2CCCCC2)CC1 (centres unmarked) | -12.1%
CC1CCN(c2ccc3c(c2)S(=O)(=O)c2cccc(C(=O)NCc4ccc(F)cc4)c2C3=O)CC1 | 15.9%
COC(=O)CCC(=O)OC1(C)C(=O)C2=CN(Cc3ccco3)C(c3ccc(OC)cc3)=CC2=C(Br)C1=O (centres unmarked) | 5.7%
Cc1cccc(NC(=S)N(Cc2ccc(Cl)cc2)Cc2ccc(C(=O)O)cc2)c1 | 18.9%
COc1ccc2cc(C(C)C(=O)NC3CCC(O)CC3)ccc2c1 (centres unmarked) | 13.4%
Cc1ccsc1C(=O)C1CCCN(Cc2cccn2-c2ccccn2)C1 (centres unmarked) | -81.7%
Oc1ccccc1C=NC1=NN(c2cccc(C(F)(F)F)c2)CC1 | 3.03%
CNC(=O)COC(=O)c1ccc(Cl)c(S(N)(=O)=O)c1 | -18.6%
O=C(CCC(=O)N1CCCc2ccccc21)N1CCN(S(=O)(=O)c2ccccc2)CC1 | 8.14%
O=C(NCCc1nc2ccccc2[nH]1)c1ccc([N+](=O)[O-])cc1 | -5.66%
COC(=O)N(C)c1nc2ccccc2s1 | 1.56%
CCOc1ccc(NC(=O)CN2CCN(c3ccc(F)cc3)CC2)cc1 | 11.4%
COc1cccc(-n2c(C)nc3ccccc3c2=O)c1 | 8.45%
COc1cccc(C(=O)Oc2cccc(N3C(=O)C4C5CC(C(Br)C5Br)C4C3=O)c2)c1 (centres unmarked) | -0.71%
CC(=O)Oc1ccc(-c2csc(Nc3cccc(C)n3)n2)cc1 | 16.3%
O=C(COc1ccccc1Cl)Nc1ccc2c(c1)OCO2 | -3.33%
CCC(CO)n1c(=S)[nH]c2cc(OC)c(OC)cc2c1=O (centres unmarked) | 15.1%
O=C(COc1ccccc1[N+](=O)[O-])N/N=C/c1cccc(OC(=O)c2ccc3c(c2)OCO3)c1 | -2.13%
O=C(NCCOCCOCCNC(=O)c1ccccc1)c1ccccc1 | 14.2%
CN(C)CCCNc1ccc(-c2cc(Nc3cccc(Cl)c3)ncn2)cn1 | -26.6%
CCOCC(=O)Nc1ccc(S(=O)(=O)Nc2ncccn2)cc1 | 14.5%
CCN(CC(=O)Nc1cccc(OC)c1)CC(=O)Nc1ccc(Br)c(C)c1 | 7.46%
Cc1ccc2occ(C(c3nnnn3Cc3ccccc3)N3CCOCC3)c(=O)c2c1 (centres unmarked) | 8.56%
